Experimental data reported in PubChem BioAssay AID485313 (National Center for Advancing Translational Sciences (NCATS), 2010).
Hit rate of the full screen: of about 320,000 compounds, about 7,600 (2.4%) were called active. The inconclusive results got no clear call from the source; some entries with a clear call stand among them for comparison. The call rests on the fitted dose curve; in most records, active means well fitted activation curve with a large enough effect; inconclusive means small, poorly fitted or top-dose-only effect; inactive means no such curve, though single readings can be large or run the other way. Where the call is inconclusive, the potency comes from a doubtful curve fit.

Assay: qHTS Assay for NPC1 Promoter Activators; further: nearly all actives have a fitted effect of over 60% in size;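 on activation: reporter is driven by a mutant NPC1 promoter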
Conditions: Huh7 NPC1 promoter luciferase reporter, 24 h; series mostly up to 9.22 µM
How it was run: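 Readout is luciferase luminescence, reflecting NPC1 promoter activation in stably transfected Huh7 cells after 24 h compound exposure at 37 °C in reduced-serum medium with 10% FBS.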
Potency means the concentration at half of the fitted maximal effect; tags describe the fitted curve by direction and shape.

Potency, inactive:
CC(C)c1nc2ccc(NC(=O)C3CCCCC3)cc2[nH]1
Cc1cccc(OCC(=O)NCCCNC(=O)c2cccnc2)c1
Cc1[nH]c2ccccc2c1C(=O)COC(=O)C1CCC1
O=C(NCCO)C1CCN(C(=O)c2ccc(-c3ccccc3)cc2)CC1
CC(C)(C)c1ccccc1NC(=O)N1CCNC(=O)C1CC(=O)Nc1ccc(F)cc1 (stereo unspecified)
COc1cccc(C2=NNC(=NCc3ccccc3)SC2)c1
Cc1ccc(Sc2ccc(N)cn2)cc1
CC(C)(C)c1ccc(OCc2nnc(SCC(N)=O)n2N)cc1
CCCN(CCC)C(=O)c1ccc2nc(-c3ccc(OC)c(OC)c3)c(-c3ccc(OC)c(OC)c3)nc2c1
CCOc1cccc(NC(=O)/C(C#N)=C/c2cccnc2)c1
CC1CC(=O)NN1C(=O)c1ccccc1 (stereo unspecified)
CCC(NC(=O)CNC(=O)c1ccc2c(c1)OCO2)c1ccc(Br)cc1 (stereo unspecified)
O=C(CCCn1c(=S)[nH]c2ccc(Br)cc2c1=O)N1CCN(c2ccccn2)CC1
c1ccc2c(c1)nc(-c1ccncc1)n2CCNc1nc(CN2CCCCC2)cs1
CCCCc1n[nH]c2c1/C(=N/OCC)CC(C)(C)C2
O=[N+]([O-])c1ccc(O)c(-c2nn[nH]n2)c1
CN(C(=O)COC(=O)C1CSC2(C)CCC(=O)N12)c1ccccc1 (stereo unspecified)
O=S(=O)(Nc1cccc(-c2ccc(N3CCCCCC3)nn2)c1)c1ccc(C(F)(F)F)cc1
CC(C)C(NC(=O)c1ccc2c(c1)OCCO2)c1nc2ccccc2[nH]1 (stereo unspecified)
O=C(CSc1ccc(Cl)cc1)N1CCOCC1
CCc1cc2ccc(C)cc2nc1SCC(=O)NC1CCCC1
COc1ccccc1C(CNC(=O)c1ccc(S(=O)(=O)N2CCCCC2)cc1)N(C)C (stereo unspecified)
COc1ccc(NC(=S)N2CCCC(c3nc4ccc(C)cc4[nH]3)C2)cc1 (stereo unspecified)
COc1ccc(CNC(=O)c2cc(S(=O)(=O)N3CCOCC3)cn2C)cc1
CCOC(=O)CN1C(=O)S/C(=C\c2ccc(-c3ccc(C(=O)O)c(Cl)c3)o2)C1=O
COc1cc([N+](=O)[O-])ccc1NC(=O)COC(=O)C=C(C)C
CCOc1ccc2nc(SCC(=O)Nc3ccc4[nH]c(=O)[nH]c4c3)[nH]c2c1

Potency, active:
Clc1ccccc1N=C1NN=C(c2cccs2)CS1 3.16 µM
Cc1cccc(C#Cc2ccccc2)n1 5.8 µM
Cc1ccc(OCC(=O)Nc2ccc(Cl)cc2)c([N+](=O)[O-])n1 2.82 µM
Clc1ccccc1-c1nnc(-c2cccnc2)o1 3.98 µM
O=C(Nc1ccc2c(c1)OCCO2)c1cccc(Cl)c1Cl 3.55 µM
O=C(Nc1ccc(C2CC2(Cl)Cl)cc1)c1cccc([N+](=O)[O-])c1 (stereo unspecified) 2 µM
Cc1ccc(NC(=O)Nc2cnc3ccccc3c2)cc1 2.24 µM
COc1ccc2c(c1OC)C(=O)N(c1cccc(C)c1)C2 1.41 µM
COc1ccc(Nc2oc(-c3ccccc3)nc2C#N)cc1 1.78 µM
COc1ccc(C(=O)/C=C/Nc2ccccn2)cc1 0.1 µM
Cc1cc(OCc2cc(C(=O)N(C)CCc3cnn(C)c3)no2)cc(C)c1Cl 2.82 µM
O=C(Nc1ccc(Br)cc1)c1ccccc1Br 1.41 µM

Potency, inconclusive:
Cc1ccc(-c2nnc(SCC(=O)NC3CC3)o2)cc1 3.16 µM [activator, single point]
Nc1ccc(C(=O)OCC(=O)N2CCOCC2)cc1[N+](=O)[O-] 3.55 µM [activator, partial curve]
O=C(Nc1ccc(Br)cc1)c1ccco1 2.82 µM [activator, partial curve]
CCn1c(Cc2ccccc2)nnc1SCC(=O)Nc1ccc2c(c1)OCO2 5.62 µM [activator, single point]
COc1cccc(Nc2nc(-c3ccc4c(c3)OCCO4)cs2)c1 3.55 µM [activator, single point]
O=C(CNC(=O)c1cccs1)c1ccc([N+](=O)[O-])cc1 2.51 µM [activator, partial curve]
CCCc1nc(Nc2nc3ccccc3o2)nc(C)c1C(=O)OCC 5.62 µM [activator, single point]
O=C(Nc1ccc(C(=O)Oc2ccccc2)c(O)c1)c1ccco1 3.55 µM [activator, partial curve]
CNc1nc(-c2ccc3c(c2)CCN3C(=O)c2cccc(F)c2)cs1 0.562 µM [activator, single point]
O=C(NC(=S)Nc1cnc2ccccc2c1)c1ccccc1 3.98 µM [activator, single point]
COc1cccc(C2Nc3cccc4cccc(c34)N2)c1 1.41 µM [activator, partial curve]
O=C(Nc1ccc(-c2noc(-c3ccccc3F)n2)cc1)c1cccs1 2 µM [activator, partial curve]
COc1ccc(CC(=O)Nc2ccc(-c3cn4ccc(C)cc4n3)cc2)cc1 2.82 µM [activator, partial curve]
Cc1cc(N2CCN(C)CC2)nc2ccc(NC(=O)c3ccc(Br)o3)cc12 5.62 µM [activator, single point]
O=C(NC1CCCCC1)N1CCc2ccccc21 2.82 µM [activator, partial curve]
CCn1nnnc1SCC(=O)c1ccc2c(c1)OCCO2 5.62 µM [activator, single point]
Fc1ccccc1Cc1noc(CN2CCC(OCc3cccnc3)CC2)n1 3.55 µM [activator, single point]
O=C(N/N=C/c1c[nH]c2ccccc12)c1cccc(Cl)c1 2.82 µM [activator, partial curve]
O=C(Nc1ccccc1O)c1csc2c1CCCC2 3.55 µM [activator, single point]
Nc1ccccc1C(=O)Nc1cccc(C(=O)O)c1 2.51 µM [activator, partial curve]
COc1ccccc1C(=O)NNC(=O)c1ccc(Br)o1 3.16 µM [activator, single point]
Cc1nc(/C=C/c2ccccc2)[nH]c(=O)c1-c1ccccc1 0.794 µM [activator, single point]
Cc1cc(/C=C(/C#N)C(=O)Nc2ccccc2)c(C)n1-c1cccnc1 5.62 µM [activator, single point]
CC(=O)Nc1ccc(C(=O)/C=C/c2ccc[nH]2)cc1 3.16 µM [activator, single point]
N#CC1=C2Sc3ccccc3N2CCCC1=O 3.55 µM [activator, single point]
CCOc1cccc(C(=O)Nc2nnc(-c3ccco3)s2)c1 4.47 µM [activator, single point]
COc1ccc(-n2nc([N+](=O)[O-])c(=NCCc3cccc(C)c3)n2O)cc1 2.82 µM [activator, partial curve]
O=C(N/N=C/c1c[nH]c2ccccc12)c1ccccc1 5.62 µM [activator, single point]
ClC1(Cl)CC1CSc1nc2ccccc2[nH]1 (stereo unspecified) 5.62 µM [activator, single point]
O=C(/C=C/c1cccs1)Nc1nncs1 5.62 µM [activator, single point]
O=C1N=C(N2CCOCC2)S/C1=C\C=C/c1ccccc1 4.47 µM [activator, single point]
Cn1c(SCC(=O)c2ccccc2)nnc1-c1ccccn1 3.55 µM [activator, single point]
Fc1ccc(N/N=C/C=C/c2ccccc2)c(F)c1 3.16 µM [activator, single point]
CCOC(=O)C1=C(COC(=O)c2cccc(N(C)C)c2)NC(=O)NC1C (stereo unspecified) 1.58 µM [activator, partial curve]
Brc1ccc(-c2cnc(-c3cccs3)o2)cc1 3.55 µM [activator, single point]
CN(CC(=O)Nc1ccccc1Br)C(=O)CCC1CCCC1 3.16 µM [activator, single point]
c1ccc(-c2nccc(-c3ccc4c(c3)OCO4)n2)cc1 5.62 µM [activator, single point]
Cc1ccc(C)c(NC(=O)Nc2ccc3c(c2)OCO3)c1 3.55 µM [activator, partial curve]
Cc1ccccc1-c1nnc(-c2ccc(Cl)cc2)o1 5.62 µM [activator, single point]
CCCc1cc(C(=O)Nc2cccc(Cl)c2C)no1 2.82 µM [activator, partial curve]
CN(CC(=O)Nc1ccc(S(=O)(=O)N2CCCC2)cc1)CC(=O)Nc1cccc(F)c1 1.26 µM [activator, single point]
CCCC(=O)Nc1ccc(NC(=O)c2ccco2)c(OC)c1 3.98 µM [activator, single point]
